PubChem BioAssay (NCI)
Where “and” joins values, the source holds several entries; their conditions need not be identical. Equal entries are not always repeated.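 Growth conditions: 96-well plates. Treatment: test compound, 48 hours, 5 concentrations. Analysis: linear interpolation between bracketing concentrations; unreached endpoints set to highest concentration. GI50: concentration for 50% inhibition of growth. TGI: concentration producing complete growth inhibition.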 Peptide text beside a SMILES is read from it. * marks the point of attachment. Boc = CC(C)(C)OC(=O)*; OBn = c1ccc(CO*)cc1

Tested on: NCI-H322M lung
Experiment: NCI tumour cell line growth inhibition, 48 h

SMILES | GI50 | TGI
CC12CCC(O)CC1=CCC1C2CCC2(C)C(c3cccnc3)=CCC12 (centres undefined) | > 100 µM | > 100 µM
CN=C(NC)N(C)c1nc(=[N+](C)C)ss1 | – | > 100 µM
O=S(=O)(O)c1ccccc1N=Nc1ccc(N=Nc2c(O)ccc3ccccc23)c(S(=O)(=O)O)c1 | – | > 100 µM
Cc1cn2c(/C=N/N=C(N)N)c(-c3ccsc3)nc2s1 | 10.9 µM | 25.6 µM
COc1cc(C(=O)OCCn2[nH]c(-c3ccc(Cl)cc3)nc2=S)cc(OC)c1OC | – | > 100 µM
Cc1ccc(C)c2c(N=Nc3ccccc3[N+](=O)[O-])c(O)[nH]c12 | – | > 100 µM
CC(C)[C@](O)(C(=O)OCC1=CCN2CC[C@@H](O)[C@@H]12)[C@H](C)O | – | > 375 µM
O=P1(Oc2ccccc2)NCc2ncccc2O1 (centres undefined) | – | > 100 µM
CNCCCn1c2c(c3ccc(F)cc3c1=O)C(=O)c1cc(OC)cnc1-2 | 0.449 µM | 4.58 µM
COc1cc2c(cc1O)C(c1cc(O)c(O)c(OC)c1)C(O)(C(=O)O)C(CO)C2O (centres undefined) | – | > 100 µM
COc1ccc(-c2cc(-c3ccccc3)nc3c2CC(=O)Nc2ccccc2-3)cc1OC | – | > 100 µM
COc1ccc(/C(=N/O)c2cc(OC)c(OC)c(OC)c2)c(OC)c1N | 4.69 µM | > 100 µM
CC1(C)N=C(N)N=C(N)N1c1ccc(Cl)c(Cl)c1 | 4.62 µM | > 100 µM
Oc1c2c(c(O)c3ccccc13)C1(N=N2)c2ccccc2Oc2ccccc21 | – | 30.5 µM
Cc1ccc(S(=O)(=O)N2CCCSCCN(S(=O)(=O)c3ccc(C)cc3)CCCSCC2)cc1 | – | > 100 µM
O=C1C2CC=CCC2C(=O)N1n1c(Cc2ccccc2)n[nH]c1=O (centres undefined) | – | > 100 µM
Cc1cc2c(=O)cc(-c3ccc(F)cc3)oc2c(C(=O)O)c1C | – | > 100 µM
CC(C)(O)CCc1ccc(O)c2c(=O)c3c(O)c4c(cc3oc12)O[C@H]1OC=C[C@@]41O | – | 0.125 µM
COc1cc2ccc(CC(N)=O)cc2cc1OC | – | > 100 µM
CCN(Cc1cccc(F)c1F)c1ccc(CO)c(Cl)c1 | 5.98 µM | 34.6 µM
COc1ccc(/C=C2\CN(C)CC3C2=NN(c2ccccc2)C3c2ccc(OC)cc2)cc1 (centres undefined) | – | > 100 µM
NC(N)=NS(=O)(=O)c1ccc(NC(=O)c2ccc3nc4ccccc4c(N)c3c2)cc1 | – | > 100 µM
CSc1ccc2c(cc1=O)[C@@H](NC(=O)c1ccc([N+](=O)[O-])cc1)CCc1cc(O)c(O)c(O)c1-2 | – | > 100 µM
Brc1ccc(C2SCc3nc4ccccc4n32)cc1 (centres undefined) | – | 54.2 µM

SMILES | GI50 | TGI
COC(=O)C1C(O)C(C)C(O)OC1C(C)C(O)C(C)/C=C\C=C(/C)C(=O)Nc1c(C)c(OC(C)=O)c2c(c1O)C(=O)C(C)=C1OCOC(/C(C)=C/C(C)=O)=C12 (centres undefined) | – | 23.7 µM
CCOC(=O)c1cn2c(ccc3sc4ccccc4c(=O)c32)n1 | – | > 100 µM
Cc1cnc(SCCN2CCN(C)CC2)nc1-c1cc2ccccc2s1 | – | 31.9 µM
COc1cc2cc3c4c(cc(OC)c(OC)c4c2cc1OC)CCN3C(=O)CCC(=O)O | – | > 100 µM
CCN1C(=O)N(CC)C2C1NN=c1s/c(=C\c3cccc([N+](=O)[O-])c3)c(=O)n12 (centres undefined) | 0.678 µM | > 100 µM
COc1cc(Nc2nc3ccccc3nc2C(C)C)cc(OC)c1OC | – | > 100 µM
Nc1ccc(OCCCc2c(-c3ccccc3)nc(N)[nH]c2=O)cc1 | – | > 100 µM
O=Nc1c(O)c2ccccc2c2ccccc12 | 1.82 µM | 3.39 µM
Cc1cc(C)c2c(=O)cc(-c3ccc4ccccc4c3)[nH]c2n1 | – | > 100 µM
CC(=O)/C(=C\c1c(-c2ccccc2)[nH]c2ccccc12)S(=O)(=O)c1ccccc1 | 5.83 µM | 20.8 µM
COc1cccc(C=C2N=C(C)N(n3c(-c4ccccc4)nc4ccccc4c3=O)C2=O)c1 | – | > 100 µM
Cc1ccc2c(CC(=O)O)cc(=O)oc2c1 | – | > 100 µM
Nc1nc(-c2cc(-c3cccc4ccccc34)nc(N)n2)cc(-c2cccc3ccccc23)n1 | – | > 100 µM
C/C(=C1\C(=O)C(c2ccccc2)N(c2ccccc2)C1=O)c1ccc(Cl)cc1 (centres undefined) | – | 36 µM
CCOC(=O)C1=C(C)NC(C)=C(C(=O)OCC)C1c1ccc(C)cc1 | – | > 100 µM
Cc1cc2c(C(C)C)c(O)c(O)c(C=Nc3ccccc3)c2c(O)c1-c1c(C)cc2c(C(C)C)c(O)c(O)c(C=Nc3ccccc3)c2c1O | – | > 100 µM
CC#CCCCC1(C)CCCNC1=S (centres undefined) | – | > 10 µM
CC1=C/C(=C2/N=C(N(C)C)SS2)C(C)=N1 | – | > 100 µM
CCN(CC)CCNC(=O)c1nn(-c2ccc(Cl)cc2)c2c1CCc1cc(OC)ccc1-2 | – | 21.7 µM
CCCCCSC1C2C(=O)C(Br)=CC13CCNc1c(O)c4c5c(c13)=[N+]2CCC=5C=N4 (centres undefined) | 1.68 µM | 4.15 µM
CC(C)CC(NC(=O)C(Cc1ccccc1)NC(=O)C(Cc1ccccc1)NC(=O)OC(C)(C)C)C(=O)OCc1ccccc1 (stereo not drawn) (Boc-Phe-Phe-Leu-OBn; configuration not given here) | – | > 100 µM
Nc1c2c(nc3ccccc13)CCCc1ccccc1-2 | – | 27.6 µM
Cc1ccc(C)c(COCCOCn2c(=O)[nH]c(=O)c3cc(Br)ccc32)c1 | – | > 100 µM
O=C1CCC2(c3ccccc3)Nc3ccc(Cl)cc3N12 (centres undefined) | – | > 100 µM

SMILES | GI50 | TGI
CC1CC(C(=O)OC2OC(COC3OC(CO)C(OC4OC(C)C(O)C(O)C4O)C(O)C3O)C(O)C(O)C2O)C2CCC3(C)C(=CCC4(C)C3CCC3C(C)(CO)C(O)C(O)CC34C)C2C1C (centres undefined) | – | > 100 µM
CN(C)CCNc1nc2ccccc2c2occc12 | 61.9 µM | > 100 µM
Cc1cccc(C(=O)O)c1CC1NCCC2c3ccccc3NC12 (centres undefined) | – | > 100 µM
O=C(COc1ccc(-c2nc3cc(Cl)c(Cl)cc3[nH]2)cc1)N=Nc1c(O)[nH]c2ccccc12 | 3.25 µM | > 100 µM
C[C@@](O)(/C=C/[C@H]1CC=CC(=O)O1)[C@@H](C[C@@H](O)\C=C/C=C\C=C\CO)OP(=O)(O)O | – | 10.5 µM
CC(=O)OC1[C@H](n2ccnc2)C[C@H]2[C@@H]3CC=C4CC(N5CCCC5)CC[C@]4(C)[C@H]3CC[C@]12C (some centres undefined) | – | > 100 µM
COc1ccc(C(=O)OC2C(OC3C(O)COC(O[C@H]4C[C@H]5[C@@H]6CC=C7C[C@@H](O)CC[C@]7(C)[C@H]6CC[C@]5(C)[C@H]4[C@H](C)C(=O)CCC(C)C)C3OC(C)=O)OCC(O)C2O)cc1 (some centres undefined) | 0.452 µM | 7.73 µM
C[C@]12CC[C@@H]3c4ccc(O)cc4CC[C@H]3[C@@H]1CC[C@@H]2NS(=O)(=O)c1ccc2ccccc2c1 | 3.92 µM | 23.9 µM
O=c1cc(O)c2c(O)cc(O)cc2o1 | – | > 100 µM
CN(C)/C=C/c1c2c(nc3ccccc13)C(=O)c1ccccc1C2=O | – | 6.29 µM
Clc1cccc2c1OCC1C(c3ccccc3)=NN(c3ccccc3)C21 (centres undefined) | – | > 100 µM
O=S(=O)(/N=C(\NO)Nc1ccc(Cl)cc1)C1CC=C(c2ccon2)S1 (centres undefined) | – | > 100 µM
CCN(CC)CCCNc1[nH]ncc2c(C)c3nc4ccccc4c3cc12 | 1.13 µM | 5.75 µM and 4.09 µM
CNc1nc2c(C)ccc3[nH]c(N(C)C)nc3c-2n1 | – | > 100 µM
CCCC#CCOC(=O)c1cc([N+](=O)[O-])cc([N+](=O)[O-])c1 | – | > 100 µM
C[C@]12CCc3sc(-c4cccc(F)c4)nc3C1=CC[C@@H]1[C@@H]2CC[C@]2(C)C(=O)CC[C@@H]12 | 3.06 µM | > 100 µM
CCOP(C)(=O)/C(Cc1ccc(OC)c(OC)c1)=N\O (centres undefined) | – | > 100 µM
CC1(C)CC(=O)c2c(ccc(C(=O)C[C@@H](N)CO)c2N)O1 | 0.415 µM | > 40.6 µM
Cc1ccc(NC(=O)/C(=N\NC(N)=O)c2c(O)c3ccccc3[nH]c2=O)cc1 | – | > 100 µM
Nc1ncnc2nn(C3OC(CO)C(O)C3O)nc12 (centres undefined) | – | 99.6 µM
COc1ccc2c(c1)CCN1C3=C(CCC3)C(=O)C[C@@H]21 | – | > 100 µM
COc1ccc(Oc2cc(NCCC(F)(F)F)c3ncc(-c4ccc(C(=O)NC5CC5)c(C)c4)n3n2)c(F)c1F | 0.61 µM | > 100 µM
Clc1ccc(C2=NOC3C4CCC(C4)C23)cc1 (centres undefined) | – | > 100 µM
CCCCN1CCN(c2ccc3nc(-c4ccc5nc(-c6ccc(OCC)c(OCC)c6)[nH]c5c4)[nH]c3c2)CC1 | 1.27 µM | 2.67 µM

SMILES | GI50 | TGI
CC[C@H]1C=CCC[C@@]2(C[C@@H]3CC[C@@H]4[C@H](C(=O)OCCCCCCCCCCCCCCCC(=O)N(CCCNC(C)=O)C[C@H](CCNC(C)=O)OC(C)=O)[C@]5(CCC[C@@H](C)O5)NC(=[N+]34)N2)O1 | – | 2.03 µM
O=C(Nc1cccc(-n2cc(-c3ccncc3)c(-c3ccc(O)c(Cl)c3)n2)c1)c1ccc(Cl)c(Cl)c1 | 58.4 µM | > 100 µM
CC12CC(Sc3ccccc3N1)c1ccccc1O2 (centres undefined) | – | 36.6 µM
COc1ccc(N(C(=O)NCCO)c2ccccc2)cc1 | – | > 100 µM
CNC(=O)c1cc2c(Oc3ccc(NC(=S)NC(=O)Cc4ccccc4)cc3F)ccnc2cc1OC | > 100 µM | > 100 µM
Cc1nc2cccc([N+](=O)[O-])c2n1CCCN(C)C | – | > 100 µM
Cc1nc2ccccc2n1Cc1nnc2n1N=C(c1ccccc1)CS2 | – | > 100 µM
CC(=O)OC1[C@@H](OC(C)=O)CN(OCc2ccccc2)C[C@H]1OC(C)=O (some centres undefined) | – | > 100 µM
O=C1Nc2ccccc2/C1=C\c1c(Cl)nc2n1CCS2 | – | > 100 µM
CC(=O)c1cccc(NC(=O)c2ccc(NC3=C(Cl)C(=O)N(Cc4ccccc4)C3=O)cc2)c1 | 17.9 µM | 39.4 µM
CCn1c(=O)c2c3cc(OC(C)=O)ccc3oc2c2ccc(OC(C)=O)cc21 | – | > 100 µM
O=C1CSC(C(N=Nc2ccc(Cl)cc2)c2nc3ccccc3[nH]2)=N1 (centres undefined) | – | > 100 µM
O=C(NC(=O)c1cc2cc(Br)cc(Br)c2oc1=O)Oc1ccccc1 | – | > 100 µM
C[n+]1c(/C=C/c2ccc(/C=N/NC(=O)c3ccc(C(=O)N/N=C/c4ccc(/C=C/c5cn6ccccc6[n+]5C)cc4)cc3)cc2)cn2ccccc21 | – | > 100 µM
Cc1ccc(C(=O)N=Nc2c(O)[nH]c3ccc(Cl)cc23)cc1 | > 50 µM | > 50 µM
CCN(CC)c1ccc(/C=C/C=C(/C#N)C(N)=S)cc1 | 43 µM | > 100 µM
O=C1C=C2CC[C@H]3[C@@H]4CC[C@H](Oc5c6ccccc6nc6ccccc56)[C@H]4CC[C@@H]3[C@H]2CC1 | – | > 100 µM
Cn1c2ccccc2c2nnc(NNCc3ccccn3)nc21 | 0.404 µM | 12.5 µM
CC(OC(=O)N(N(CCCl)S(C)(=O)=O)S(C)(=O)=O)c1ccc([N+](=O)[O-])cc1 (centres undefined) | > 82.7 µM | > 100 µM
C/C=C1\CCC2c3[nH]c4ccccc4c3CCN2C1 (centres undefined) | – | > 100 µM
Cc1cc(NS(=O)(=O)c2ccc(Nc3c4ccccc4nc4c(C(=O)Nc5ccc(S(=O)(=O)N=C(N)N)cc5)ccc(Cl)c34)cc2)no1 | – | 60.4 µM
